Results from PubChem BioAssay AID492949 (National Center for Advancing Translational Sciences (NCATS), 2010).
Inconclusive results, whose numbers are uncertain, are shown with a selection of clear calls. A potency beside an inconclusive call is a rough fit, not a confirmed value. Activity calls are given as the source filed them. The call rests on the fitted dose curve; in most records, active means well fitted activation curve with a large enough effect; inconclusive means small, poorly fitted or top-dose-only effect; inactive means no such curve, though single readings can be large or run the other way.

Target: Relaxin receptor 1 (Homo sapiens) (UniProt Q9HBX9)
Sequence of UniProt Q9HBX9 (Q9HBX9 whole entry, looked up): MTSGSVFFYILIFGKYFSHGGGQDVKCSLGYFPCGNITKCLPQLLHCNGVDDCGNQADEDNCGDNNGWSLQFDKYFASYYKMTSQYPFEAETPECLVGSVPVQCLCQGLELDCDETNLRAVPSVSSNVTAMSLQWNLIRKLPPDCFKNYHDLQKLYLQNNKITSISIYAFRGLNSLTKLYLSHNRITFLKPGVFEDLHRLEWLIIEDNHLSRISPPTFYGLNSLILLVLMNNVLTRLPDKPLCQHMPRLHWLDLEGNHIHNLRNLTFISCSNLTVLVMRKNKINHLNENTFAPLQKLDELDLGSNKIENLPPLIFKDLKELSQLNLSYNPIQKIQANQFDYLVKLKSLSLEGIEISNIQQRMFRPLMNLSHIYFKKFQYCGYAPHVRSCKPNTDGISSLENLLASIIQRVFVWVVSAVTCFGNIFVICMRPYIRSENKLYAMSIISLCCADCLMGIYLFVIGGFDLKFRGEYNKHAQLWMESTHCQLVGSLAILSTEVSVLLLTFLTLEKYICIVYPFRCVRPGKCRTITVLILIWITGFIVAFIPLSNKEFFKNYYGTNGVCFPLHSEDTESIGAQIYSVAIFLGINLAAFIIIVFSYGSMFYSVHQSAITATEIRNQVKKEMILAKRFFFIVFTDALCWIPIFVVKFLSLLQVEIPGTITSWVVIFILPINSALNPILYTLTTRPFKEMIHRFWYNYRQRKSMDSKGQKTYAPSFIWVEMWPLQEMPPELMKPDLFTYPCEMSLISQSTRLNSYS
Experiment: qHTS Assay for Agonists of the Relaxin Receptor RXFP1: THP1 Hit Validation; further: nearly all actives have a fitted effect of over 60% in size
Conditions: THP1-RXFP1 cells, cAMP TR-FRET, 30 min; series mostly up to 115 µM
In short: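 THP1 cells stably expressing RXFP1 were exposed to compounds for 30 min at 37C with PDE4 inhibitor Ro 20174. Lysate cAMP was read by HTRF, normalized to buffer and 29 nM porcine relaxin, with Hill-fit EC50.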
Potency means the concentration at half of the fitted maximal effect; tags describe the fitted curve by direction and shape.

Structure (SMILES)	Potency
COc1cccc(CNC(=O)c2ccc(CS(=O)Cc3ccc(C)cc3)o2)c1 (stereo not drawn)	inactive
O=C(OCc1nc2ccsc2c(=O)[nH]1)c1cccc(S(=O)(=O)N2CCOCC2)c1	active: 43.6 µM
O=C(CCCN1C(=O)c2cccnc2C1=O)Nc1ccccc1F	inconclusive: 34.6 µM [activator, partial curve]
Cc1ccc(C(=O)Nc2ccccc2C(=O)NCc2ccco2)cc1	inconclusive: 131 µM [activator, single point]
C=CCSc1nc2c(c(=O)[nH]1)C(C(C)C)C(C#N)=C(N)O2 (stereo not drawn)	inactive
C/C(=N\NC(=O)c1c(C)nc2ccccn12)c1ccc(N2CCOCC2)cc1	inconclusive: 6.91 µM [activator, full curve]
Cc1ccc2[nH]c3c(=S)nc[nH]c3c2c1	active: 6.9 µM
CCOc1ccc2cc(C#N)c(SCC(=O)NC(C)CC)nc2c1 (stereo not drawn)	active: 6.9 µM
COc1ccc(-n2nc(C(=O)NCC(=O)NCCCN3CCOCC3)c3ccccc3c2=O)cc1Cl	inconclusive: 27.5 µM [activator, partial curve]
COC(=O)c1c(NC(=O)c2cccc(N3C(=O)CCC3=O)c2)sc2c1CCN(C(C)=O)C2	inconclusive: 8.7 µM [activator, full curve]
CN(CC(=O)Nc1ccccc1Cl)C(=O)COC(=O)Cc1c(F)cccc1Cl	inactive
Cc1nc2scc(C)n2c(=O)c1S(=O)(=O)N1CCN(c2ccccn2)CC1	inconclusive: 6.16 µM [activator, full curve]
CCN(CC)S(=O)(=O)c1cccc(C(=O)NCCCn2ccnc2)c1	inconclusive: 38.9 µM [activator, partial curve]
